PubChem BioAssay AID1508623 (National Center for Advancing Translational Sciences (NCATS), 2021)
Screen size: about 48,000 compounds; about 450 (0.94%) were called active. Roughly 19% stayed inconclusive and do not appear here. The call rests on the fitted dose curve; in most records, active means well fitted inhibition curve with a large enough effect; inconclusive means small, poorly fitted or top-dose-only effect; inactive means no such curve, though single readings can be large or run the other way. This is one part of the list.

Assay: Primary qHTS for Identification of Small Molecule Inhibitors of Huntingtin Promoter Activity; further: nearly all actives have a fitted effect of over 50% in size
Conditions: HEK293 HTT promoter firefly luciferase reporter (activity 0% = vehicle and -100% = no light), 24 h; series mostly up to 57.5 µM; activity change, negative = inhibition: at the top concentration
Procedure, shortened: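 Luminescence was read after Dual-Glo reagent and a 10 min room-temperature incubation. Values were normalized to vehicle (0% activity) and zero RLU (-100% activity). Reporter HEK293 cells had been exposed to compounds (up to 57.5 uM final) for 24 h.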
In the case of `CCOc1cccc(NC(=O)C2CC(=O)N(C)C(=Nc3ccc(OC)cc3)S2)c1` (centres undefined), the “activity change, negative = inhibition” value was inactive: -21.3%. In the case of `Cn1nc(C(=O)NCc2ccccc2)c2c1-c1ccccc1S(=O)(=O)C2`, the “activity change, negative = inhibition” value was inactive: -17.1%. In the case of `CCOc1ccc(-n2c(=O)c3c(C)c(C(=O)N(C)C)sc3n(Cc3cc(C)ccc3C)c2=O)cc1`, the “activity change, negative = inhibition” value was inactive: -8.19%. For `Cc1ccc(S(=O)(=O)C(CNC(=O)C(=O)NCc2ccc(Cl)cc2)c2ccco2)cc1` (centres undefined), the “activity change, negative = inhibition” value was inactive: -21.9%. With `CCOc1ccccc1CNC(=O)c1oc2ccc3c(c2c1C)C(=O)CC(C)(C)O3` the “activity change, negative = inhibition” value was inactive: 10.7%. With `O=c1c2sc3ccccc3c2n(Cc2ccc(F)cc2Cl)c(=O)n1Cc1ccccc1` the “activity change, negative = inhibition” value was inactive: -7.19%. For `COC(=O)c1ccc2nc(C)cc(Nc3cccc(Cl)c3C)c2c1`, the “activity change, negative = inhibition” value was inactive: -26.1%. For `COCC(=O)Nc1c(C(=O)Nc2ccc(C)cc2)oc2ccccc12`, the “activity change, negative = inhibition” value was inactive: 32.1%. In the case of `Cc1ccc2oc(-c3ccc(C)c(NC(=O)c4ccc(-c5ccccc5[N+](=O)[O-])o4)c3)nc2c1`, the “activity change, negative = inhibition” value was inactive: -2.48%. With `CCn1cc(S(=O)(=O)c2ccc(Cl)cc2)c(=O)c2cc(F)c(N3CCOCC3)cc21` the “activity change, negative = inhibition” value was inactive: 4.26%. In the case of `CCN(CC)S(=O)(=O)c1ccc(N2CCCCS2(=O)=O)cc1`, the “activity change, negative = inhibition” value was inactive: 6.75%. For `Cc1ccc(CNC(=O)CN2C(=O)CCc3cc(S(=O)(=O)N4CCCCC4)ccc32)cc1`, the “activity change, negative = inhibition” value was inactive: -3.66%. For `CCOC(=O)c1ccc(-c2ccc(/C=C(\C#N)C(=O)Nc3ccc(C)cc3)o2)cc1`, the “activity change, negative = inhibition” value was inactive: -2.27%. With `Cc1ccc(CCNC(=O)CCn2nc(-c3ccc(C)cc3)ccc2=O)cc1` the “activity change, negative = inhibition” value was inactive: -1.37%. With `COC(=O)c1ccc2c(=O)n(CCCCCC(=O)N3CCN(c4ccc(Cl)cc4)CC3)c(=O)[nH]c2c1` the “activity change, negative = inhibition” value was inactive: 1.17%. With `CCN(CC)CCSc1nnc2c3cc(F)ccc3n(CC)c2n1` the “activity change, negative = inhibition” value was inactive: -11.1%. For `COc1ccccc1CNC(=O)Cn1c(=O)nc(-c2ccccc2)c2ccccc21`, the “activity change, negative = inhibition” value was inactive: -2.86%. For `CCCSc1nnc2c(n1)OC(c1cccs1)Nc1ccc(Br)cc1-2` (centres undefined), the activity change, negative = inhibition was inactive: -9.86% [at 11.5 µM]. With `Oc1c(C(c2ccccc2F)N2CCCC2)sc2nc(-c3ccco3)nn12` (centres undefined) the “activity change, negative = inhibition” value was inactive: 0%. For `CNCCC(Oc1ccccc1OC)c1ccccc1` (centres undefined), the “activity change, negative = inhibition” value was inactive: 8.84%. For `O=C(NCCc1ccccc1)c1ccc(CS(=O)(=O)c2ccc(Cl)cc2)o1`, the “activity change, negative = inhibition” value was inactive: -8.63%. For `CCc1ccc(N(CC)C(=O)Cn2cnc3sc(C)c(S(=O)(=O)N4CCN(c5ncccn5)CC4)c3c2=O)cc1`, the “activity change, negative = inhibition” value was inactive: -8.37%. In the case of `CCCOc1ccccc1C1C(C(=O)Nc2ccccc2)=C(C)Nc2nnnn21` (centres undefined), the “activity change, negative = inhibition” value was inactive: -25.2%. For `Cc1cccc(S(=O)(=O)c2cn(C)c3cc(N4CCC(C)CC4)c(F)cc3c2=O)c1`, the “activity change, negative = inhibition” value was inactive: -10.9%. In the case of `CCC(=O)N1c2ccc(S(=O)(=O)CCC(=O)NCc3cccc(OC)c3)cc2CC1C` (centres undefined), the “activity change, negative = inhibition” value was inactive: -0.407%. For `O=C(NCc1ccccc1Cl)c1nnc(Cc2ccc(Cl)cc2)o1`, the “activity change, negative = inhibition” value was inactive: 0.359%. For `Cc1cccc(CSc2ccc(-c3cccs3)nn2)c1`, the “activity change, negative = inhibition” value was inactive: 50.5%. In the case of `COc1ccc(-c2noc(CSc3nnc(C)n3-c3ccc(C)c(C)c3)n2)c(OC)c1`, the “activity change, negative = inhibition” value was inactive: -27.6%. With `COc1ccc(-c2nc(SCC(=O)NCCc3ccccc3)n[nH]2)cc1` the “activity change, negative = inhibition” value was inactive: -13.2%. For `Cc1ccc2onc(CC(=O)N3CCN(c4ccccc4)CC3)c2c1`, the “activity change, negative = inhibition” value was inactive: -14.4%. In the case of `COc1ccccc1O`, the “activity change, negative = inhibition” value was inactive: 4.88% [at 116 µM]. In the case of `CCOc1ccc(NC(=O)C(C)n2c(=O)cc(C)c3c(C)nn(-c4ccccc4)c32)cc1` (centres undefined), the “activity change, negative = inhibition” value was inactive: 0%. In the case of `CCc1ccc(OCC(=O)Nc2ccc3c(c2)c2ccccc2n3CC)c(Br)c1`, the activity change, negative = inhibition was inactive: -12.7% [at 11.5 µM]. For `N#C/C(=C\c1cc(Br)c(O)c(Br)c1)c1nc2ccccc2c(=O)[nH]1`, the “activity change, negative = inhibition” value was inactive: -15.5%. In the case of `CCc1ccc(NC(=O)CSc2ncc(S(=O)(=O)c3cc(C)ccc3C)c(=O)[nH]2)cc1`, the “activity change, negative = inhibition” value was inactive: -6.26%. In the case of `O=C(O)Cc1cn(-c2ccccc2)nc1-c1ccc(Cl)cc1`, the “activity change, negative = inhibition” value was inactive: -2.71%. In the case of `COc1ccc(CC(=O)NC2CC(=O)N(c3ccc(C)c(C)c3)C2)cc1OC` (centres undefined), the “activity change, negative = inhibition” value was inactive: -23.7%. For `Cc1cccc2sc(N(Cc3cccnc3)C(=O)C3COc4ccccc4O3)nc12` (centres undefined), the “activity change, negative = inhibition” value was inactive: 26.8%. With `Cc1ccc(CNC(=O)CN2C(=O)C3(SCC(=O)N3c3ccc(F)c(F)c3)c3ccccc32)cc1` (centres undefined) the “activity change, negative = inhibition” value was inactive: 3.16%. In the case of `O=NN(CCCl)C(=O)NC1CCCCC1`, the activity change, negative = inhibition was “inactive”. With `CCOC(=O)C(Cc1ccccc1)NC(=O)CCc1c(C)nc2c(c(C)nn2-c2ccc(C)c(C)c2)c1C` (centres undefined) the “activity change, negative = inhibition” value was inactive: -13.3%. For `COC(=O)c1ccccc1NC(=O)C1CCCN(c2nnc(C)c3c(C)n(-c4ccccc4)nc23)C1` (centres undefined), the “activity change, negative = inhibition” value was inactive: 16.4%. For `COc1ccc(OCC(=O)NCC(c2ccc(OC)cc2)N2CCOCC2)cc1` (centres undefined), the “activity change, negative = inhibition” value was inactive: -6.26%. For `Cc1cc(NC(=O)C(C)(C)C)cc(-c2nc3ncccc3o2)c1O`, the “activity change, negative = inhibition” value was inactive: -11.1%. In the case of `Cc1cc(NC(=O)c2cnc3c(-c4ccccc4)c(C)nn3c2C)ccc1Br`, the “activity change, negative = inhibition” value was inactive: -23%. With `Cc1cccc(N2CCN(C(=O)CN3C(=O)COc4ccc(S(=O)(=O)N5CCCC5)cc43)CC2C)c1` (centres undefined) the “activity change, negative = inhibition” value was inactive: -24.9%. In the case of `CCn1c(SCC(=O)c2ccccc2)nnc1-c1cccc(Cl)c1`, the “activity change, negative = inhibition” value was inactive: 0.805%. With `CCc1c(CN2CCN(c3ccccc3F)CC2)csc1C` the “activity change, negative = inhibition” value was inactive: -2.41%. For `Cc1ccc(/C=C/c2onc(C)c2S(=O)(=O)N2CCC(C(=O)NCc3ccc(OC(C)C)cc3)CC2)cc1`, the “activity change, negative = inhibition” value was inactive: -19.5%.
